Paper PMC9911399, “Two distinct binding modes provide the RNA-binding protein RbFox with extraordinary sequence specificity”
Where a chain is given by its changes, count along the chain named. Some of the results follow.

B1: GUGGUAU (DNA:RNA)
RNA: GGGAGACCGGAAUUCAGAUUGUCCGUGGUAUUUAAAUCCCGUCGUAGCCACCA
DNA 1: CAATCTGAATTCCGGTCTCCC
DNA 2: TGGTGGCTACGACGGGATT
B2: UGUUCCU (DNA:RNA)
RNA: B1 RNA with G25U, U26G, G27U, G28U, U29C, A30C
DNA 1: CAATCTGAATTCCGGTCTCCC
DNA 2: TGGTGGCTACGACGGGATT
B3: CCUUAAG (DNA:RNA)
RNA: B1 RNA with G25C, U26C, G27U, G28U, U29A, U31G
DNA 1: CAATCTGAATTCCGGTCTCCC
DNA 2: TGGTGGCTACGACGGGATT
B4: CGAAAAG (DNA:RNA)
RNA: B1 RNA with G25C, U26G, G27A, G28A, U29A, U31G
DNA 1: CAATCTGAATTCCGGTCTCCC
DNA 2: TGGTGGCTACGACGGGATT
B5: GACCCUU (DNA:RNA)
RNA: B1 RNA with U26A, G27C, G28C, U29C, A30U
DNA 1: CAATCTGAATTCCGGTCTCCC
DNA 2: TGGTGGCTACGACGGGATT
B6: GGUACCA (DNA:RNA)
RNA: B1 RNA with U26G, G27U, G28A, U29C, A30C, U31A
DNA 1: CAATCTGAATTCCGGTCTCCC
DNA 2: TGGTGGCTACGACGGGATT
B7: AUUAAUC (DNA:RNA)
RNA: B1 RNA with G25A, G27U, G28A, U29A, A30U, U31C
DNA 1: CAATCTGAATTCCGGTCTCCC
DNA 2: TGGTGGCTACGACGGGATT
B8: CACGGAC (DNA:RNA)
RNA: B1 RNA with G25C, U26A, G27C, U29G, U31C
DNA 1: CAATCTGAATTCCGGTCTCCC
DNA 2: TGGTGGCTACGACGGGATT
B9: UGCUUCG (DNA:RNA)
RNA: B1 RNA with G25U, U26G, G27C, G28U, A30C, U31G
DNA 1: CAATCTGAATTCCGGTCTCCC
DNA 2: TGGTGGCTACGACGGGATT
B10: UGCAGCA (DNA:RNA)
RNA: GGGAGACCGGAAUUCAGAUUGUCCUGCAGCAUUAAAUCCCGUCGUAGCCACCA
DNA 1: CAATCTGAATTCCGGTCTCCC
DNA 2: TGGTGGCTACGACGGGATT
B11: GGAACGU (DNA:RNA)
RNA: B1 RNA with U26G, G27A, G28A, U29C, A30G
DNA 1: CAATCTGAATTCCGGTCTCCC
DNA 2: TGGTGGCTACGACGGGATT
B12: UAGUUCG (DNA:RNA)
RNA: B1 RNA with G25U, U26A, G28U, A30C, U31G
DNA 1: CAATCTGAATTCCGGTCTCCC
DNA 2: TGGTGGCTACGACGGGATT
B13: UCGGGUC (DNA:RNA)
RNA: B1 RNA with G25U, U26C, U29G, A30U, U31C
DNA 1: CAATCTGAATTCCGGTCTCCC
DNA 2: TGGTGGCTACGACGGGATT
B14: AAACGUU (DNA:RNA)
RNA: B1 RNA with G25A, U26A, G27A, G28C, U29G, A30U
DNA 1: CAATCTGAATTCCGGTCTCCC
DNA 2: TGGTGGCTACGACGGGATT
B15: GAACUGG (DNA:RNA)
RNA: B1 RNA with U26A, G27A, G28C, A30G, U31G
DNA 1: CAATCTGAATTCCGGTCTCCC
DNA 2: TGGTGGCTACGACGGGATT
B16: AGGGGAC (DNA:RNA)
RNA: B1 RNA with G25A, U26G, U29G, U31C
DNA 1: CAATCTGAATTCCGGTCTCCC
DNA 2: TGGTGGCTACGACGGGATT
B17: UCCAUUU (DNA:RNA)
RNA: B10 RNA with G26C, G29U, C30U, A31U
DNA 1: CAATCTGAATTCCGGTCTCCC
DNA 2: TGGTGGCTACGACGGGATT
B18: ACGGACG (DNA:RNA)
RNA: B1 RNA with G25A, U26C, U29A, A30C, U31G
DNA 1: CAATCTGAATTCCGGTCTCCC
DNA 2: TGGTGGCTACGACGGGATT
B19: UGAACAU (DNA:RNA)
RNA: B10 RNA with C27A, G29C, C30A, A31U
DNA 1: CAATCTGAATTCCGGTCTCCC
DNA 2: TGGTGGCTACGACGGGATT
B20: CCGCGCA (DNA:RNA)
RNA: B10 RNA with U25C, G26C, C27G, A28C
DNA 1: CAATCTGAATTCCGGTCTCCC
DNA 2: TGGTGGCTACGACGGGATT
B21: CCGAGCG (DNA:RNA)
RNA: B10 RNA with U25C, G26C, C27G, A31G
DNA 1: CAATCTGAATTCCGGTCTCCC
DNA 2: TGGTGGCTACGACGGGATT
B22: GUGCUUU (DNA:RNA)
RNA: B1 RNA with G28C, A30U
DNA 1: CAATCTGAATTCCGGTCTCCC
DNA 2: TGGTGGCTACGACGGGATT
B23: UUCGAUG (DNA:RNA)
RNA: B1 RNA with G25U, G27C, U29A, A30U, U31G
DNA 1: CAATCTGAATTCCGGTCTCCC
DNA 2: TGGTGGCTACGACGGGATT
B24: GGCCUAC (DNA:RNA)
RNA: B1 RNA with U26G, G27C, G28C, U31C
DNA 1: CAATCTGAATTCCGGTCTCCC
DNA 2: TGGTGGCTACGACGGGATT
B25: GUAUCAG (DNA:RNA)
RNA: B1 RNA with G27A, G28U, U29C, U31G
DNA 1: CAATCTGAATTCCGGTCTCCC
DNA 2: TGGTGGCTACGACGGGATT
B26: UUGCCCC (DNA:RNA)
RNA: B1 RNA with G25U, G28C, U29C, A30C, U31C
DNA 1: CAATCTGAATTCCGGTCTCCC
DNA 2: TGGTGGCTACGACGGGATT
B27: CAAAGGA (DNA:RNA)
RNA: B10 RNA with U25C, G26A, C27A, C30G
DNA 1: CAATCTGAATTCCGGTCTCCC
DNA 2: TGGTGGCTACGACGGGATT
B28: AAAAAAA (DNA:RNA)
RNA: B10 RNA with U25A, G26A, C27A, G29A, C30A
DNA 1: CAATCTGAATTCCGGTCTCCC
DNA 2: TGGTGGCTACGACGGGATT
B29: GGCACAG (DNA:RNA)
RNA: B10 RNA with U25G, G29C, C30A, A31G
DNA 1: CAATCTGAATTCCGGTCTCCC
DNA 2: TGGTGGCTACGACGGGATT
B30: AUCAACU (DNA:RNA)
RNA: B10 RNA with U25A, G26U, G29A, A31U
DNA 1: CAATCTGAATTCCGGTCTCCC
DNA 2: TGGTGGCTACGACGGGATT
B31: AACCCAG (DNA:RNA)
RNA: B1 RNA with G25A, U26A, G27C, G28C, U29C, U31G
DNA 1: CAATCTGAATTCCGGTCTCCC
DNA 2: TGGTGGCTACGACGGGATT

What follows are binders tested against T1, RBFOX1 RRM (Homo sapiens, UniProt Q9NWB1 109-208) (assay: EMSA; HiTS-Eq, 1 nM pool, 10 min; buffer printed only for the single-RNA assays: 10 mM Tris pH 7.5, 150 mM NaCl, 3.4 mM EDTA, 0.001% NP-40, 30 C). Settings: tags: His6 N-terminal (pET28a); label: 5' 32P.
T1 sequence: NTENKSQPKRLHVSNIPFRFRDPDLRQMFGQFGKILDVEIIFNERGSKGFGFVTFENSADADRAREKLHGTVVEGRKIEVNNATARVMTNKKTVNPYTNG
In short: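 Relative association constants, normalised to the cognate motif, were derived by comparing read counts of each RNA species with those of the control reaction. The RNA sequenced was the free fraction, separated by 8% native PAGE after a 10 min equilibration in 50 µL of 1 nM 5′-radiolabelled RNA (7 randomized nucleotides) with increasing concentrations of purified wild-type or mutant RbFox RRM.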

| Binder | binding signal |
| --- | --- |
| B1 | 0.0119 KA relative to UGCAUGU |
| B2 | 0.0154 KA relative to UGCAUGU |
| B3 | 0.00771 KA relative to UGCAUGU |
| B4 | 0.00581 KA relative to UGCAUGU |
| B5 | 0.00469 KA relative to UGCAUGU |
| B6 | 0.00861 KA relative to UGCAUGU |
| B7 | 0.00236 KA relative to UGCAUGU |
| B8 | 0.00842 KA relative to UGCAUGU |
| B9 | 0.0247 KA relative to UGCAUGU |
| B10 | 0.0136 KA relative to UGCAUGU |
| B11 | 0.0248 KA relative to UGCAUGU |
| B12 | 0.0246 KA relative to UGCAUGU |
| B13 | 0.0188 KA relative to UGCAUGU |
| B14 | 0.00507 KA relative to UGCAUGU |
| B15 | 0.0152 KA relative to UGCAUGU |
| B16 | 0.0113 KA relative to UGCAUGU |

| Binder | binding signal |
| --- | --- |
| B17 | 0.00344 KA relative to UGCAUGU |
| B18 | 0.00371 KA relative to UGCAUGU |
| B19 | 0.00781 KA relative to UGCAUGU |
| B20 | 0.00992 KA relative to UGCAUGU |
| B21 | 0.0112 KA relative to UGCAUGU |
| B22 | 0.0205 KA relative to UGCAUGU |
| B23 | 0.0199 KA relative to UGCAUGU |
| B24 | 0.00449 KA relative to UGCAUGU |
| B25 | 0.011 KA relative to UGCAUGU |
| B26 | 0.0117 KA relative to UGCAUGU |
| B27 | 0.00486 KA relative to UGCAUGU |
| B28 | 0.000895 KA relative to UGCAUGU |
| B29 | 0.00607 KA relative to UGCAUGU |
| B30 | 0.00232 KA relative to UGCAUGU |
| B31 | 0.000825 KA relative to UGCAUGU |
